The other results are listed elsewhere or left out.
B1: chr2:151796264:151796265:-_ENSMUSG00000027459_ENSMUST00000062047|mus_hu|FALSE|FALSE (ssRNA)
RNA: GGGAGUUCUACAGUCCGACGAUCAGUGCGGCUGGCCUCGGCAGGGGACACGGGGCUGUCACACAAGUCGAUGAGGCUGCUGAGGAUGUCCAGGUCCAGCUGGGGCCGUCGGCAGGGGCCAGGCAGGGCUCGGCGGCUGGGCGUCAACAGAGGAUUGAGCAUCA
B2: chr11:88707168:88707169:-_ENSMUSG00000018428_ENSMUST00000018572|mus_mus|motif|central (ssRNA)
RNA: GGGAGUUCUACAGUCCGACGAUCAAGGGGAAGAGCGAACGCAACUGGAUUGCCAUCUUGGAGUCAGUCGAUGUGAAGUAGCGGCACCUGCUCCUGGGCGACCGUCUAGGCACUCAAUCCUCCCGCCACCGCCCCCUGGCCCCCCAACAGAGGAUUGAGCAUCA
B3: chr4:25749455:25749456:-_ENSG00000091490_ENST00000264868|hu_hu|hu_hu_hu_mus_False|8_38 (ssRNA)
RNA: GGGAGUUCUACAGUCCGACGAUCGCACUAUGACCUCUAGAAAAAUCCACAGGGGGAAAAAAUGUAAACCAAUGUACAAUGUUAUCGCCUUCCCUGUAUUUCCAGGCUUUGUCUCAAGGCUCCUUCUUGCCUUAUAAUUUGGGACAACAGAGGAUUGAGCAUCA
B4: chr2:48035047:48035048:-_ENSG00000138081_ENST00000403359|hu_hu|FALSE|FALSE (ssRNA)
RNA: GGGAGUUCUACAGUCCGACGAUCACAAAAUUGCAGCUUAUUUUCUUCACUUCUGUCCCUUCAAGUCUUUACACAGUAAUGCUAAAACACCCAGCUUUGAGAUCCUGAGUCAAUAUAUUGCCACUUUCUUUUUGGUAGCUUGAGCAACAGAGGAUUGAGCAUCA
B5: chr2:47635579:47635580:+_ENSG00000095002_ENST00000543555|hu_mus|motif|central (ssRNA)
RNA: GGGAGUUCUACAGUCCGACGAUCAACUCGAUACUGGCGAACCAGAAGAAGAUCUUUCACGAAAGACUCAAAGUUCAUCUUGCGGAGCACAACACUCUGCAGGGUCUUACUCCCUGCCGGCCCCAUGUACUUGAUCACGCCCUGCAACAGAGGAUUGAGCAUCA
B6: chr12:70905630:70905631:-_ENSMUSG00000034761_ENSMUST00000110570|mus_mus|motif|central (ssRNA)
RNA: GGGAGUUCUACAGUCCGACGAUCUAAGGCAACCCUGUAUGAAACUGUCGUAAAAUAUUCUGUUAAGGGAAGCUGUAUGUGCGGGACCUCCAACACGCCGCCAGGAACCCCCAAAGCACUACUCUGAGAAGGUAAACAACAUUUCAACAGAGGAUUGAGCAUCA

Target: T1, UNK ZnF1-3 (human, UniProt Q9C0B0 31-174)
T1 sequence: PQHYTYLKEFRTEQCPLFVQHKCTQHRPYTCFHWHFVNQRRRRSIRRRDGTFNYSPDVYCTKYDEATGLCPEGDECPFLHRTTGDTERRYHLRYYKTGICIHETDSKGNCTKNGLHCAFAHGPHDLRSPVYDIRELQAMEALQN
Test: nsRBNS (natural sequence RNA bind-n-seq); RBNS binding buffer (assumed for nsRBNS): 25 mM Tris pH 7.5, 150 mM KCl, 3 mM MgCl2, 0.01% Triton X-100, 500 ug/ml BSA, 20 U/ml SUPERase-In, 4 C; UNK is unkempt and MSI1 is Musashi-1; names of the RNAs are library labels; protein concentration not given here; high values mean tight binding

Binder	binding signal
B1	0.959 enrichment R
B2	1.45 enrichment R
B3	0.968 enrichment R
B4	0.734 enrichment R
B5	0.841 enrichment R
B6	1.31 enrichment R
